Measurements as given in PubChem BioAssay AID504832 (National Center for Advancing Translational Sciences (NCATS), 2011).
The whole screen tested about 310,000 compounds, of which about 18,000 (5.8%) were called active. Inconclusive means that the source gave no clear call. Such entries were picked first, then a sample of the others. Calls follow the shape of the dose curve; as a rule, active = well fitted inhibition curve with a large enough effect; inconclusive = small, poorly fitted or top-dose-only effect, or another doubt; inactive = no such curve, though single readings can be large or run the other way. No potency is given beside an inconclusive call; the fits are too rough.

Test: Primary qHTS for delayed death inhibitors of the malarial parasite plastid, 48 hour incubation
Conditions: P. falciparum luciferase growth in erythrocytes; series mostly up to 28.7 µM
Outline: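 Erythrocytes infected with P. falciparum carrying an integrated firefly luciferase reporter (2% hematocrit, 0.1% parasitemia final) were exposed to compounds in RPMI 1640 with 0.5% Albumax at 37 C, 5% CO2. Growth inhibition was scored as reduced luminescence.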
Potency is read from the fitted curve at half-maximal effect; tags tell the direction and shape of the fitted curve.

SMILES | Potency
Cc1cccc(OCC(=O)Nc2sc3c(c2C#N)CCC3)c1 | inactive
CC(=O)N1CC2(c3ccccc3)CN(C(C)=O)CC(c3ccccc3)(C1)C2=O | inactive
COc1cc(C(=O)Nc2nc(-c3ccc(F)cc3)cs2)ccc1OCC(=O)N1CCOCC1 | inconclusive [inhibitor, single point]
CCC(CC)c1nc(C#N)c(NC(C)c2ccccc2)o1 (stereo not drawn) | inconclusive [inhibitor, single point]
Nn1c(SCc2ccc(C(=O)O)cc2)nnc1-c1ccc(Cl)cc1Cl | inactive
COc1cc(NC(=O)C2=CC(c3ccco3)=NS(=O)(=O)N2C)cc(OC)c1OC | inconclusive [inhibitor, single point]
CC1CCN(CC(O)Cn2c3ccccc3c3ccccc32)CC1 (stereo not drawn) | inconclusive [inhibitor, single point]
COC(=O)c1cc(NC(=O)N2c3ccccc3Sc3ccccc32)cc(C(=O)OC)c1 | inconclusive [inhibitor, single point]
Clc1ccc(Oc2nc3ccccc3n3cccc23)cc1 | inactive
COc1ccccc1/C=C/C=N/NC(=O)c1cc(-c2ccc(C)o2)[nH]n1 | inconclusive [inhibitor, partial curve, poor fit]
CC(=O)Nc1cccc(NC(=O)c2cccc3cccnc23)c1 | inconclusive [inhibitor, single point]
CCOC(=O)C1(CCOc2ccccc2)CCN(Cc2cccc(O)c2)CC1 | inconclusive [inhibitor, single point]
COc1cc(-c2nc(C(=O)NC3CCCCC3)cc3c2[nH]c2ccccc23)cc(OC)c1OC | active: 6.57 µM
COCCN(C(=O)c1cccc(OC)c1)c1nnc(-c2ccncc2)s1 | inconclusive [inhibitor, single point]
CCCSCCCNC(=O)CN1C(=O)COc2ccc(S(=O)(=O)N3CCCC3)cc21 | inactive
COc1ccc(NC(=O)CCN2CCCC(C)C2)cc1 (stereo not drawn) | inactive
CNC(=S)NCCc1ccc(OC)c(OC)c1 | inactive
CC(C)CCNC(=O)C(=O)NCC1OCCCN1S(=O)(=O)c1cccs1 (stereo not drawn) | inconclusive [inhibitor, partial curve]
CCCNc1sc(S(=O)(=O)CCC)nc1S(=O)(=O)c1ccc(C)cc1 | inconclusive [inhibitor, partial curve, poor fit]
COc1ccc(CCNC(=O)c2cccc(S(=O)(=O)NC(C)c3ccccc3)c2)cc1 (stereo not drawn) | inconclusive [inhibitor, partial curve, poor fit]
CCOC(=O)N=Nc1c(O)n(Cc2ccccc2)c2ccccc12 | inactive
COC(=O)C1=C(C)N(Cc2ccc(C)cc2)C(=O)C1 | inconclusive [inhibitor, single point]
CCc1cc2c(CN3CCN(C)CC3)cc(=O)oc2cc1O | inconclusive [inhibitor, single point]
N/C(=N\N=C/c1ccc(Br)cc1)N/N=C\c1ccc(Br)cc1 | inconclusive [inhibitor, full curve]
O=C(NNc1ccccc1[N+](=O)[O-])Nc1ccc(F)cc1 | inactive

SMILES | Potency
CCOC(=O)C(C)Sc1ncc(-c2ccc(Cl)cc2)cn1 (stereo not drawn) | inactive
CN(C)CCNc1c2c(c(C#N)c3nc4ccccc4n13)CCCC2 | inconclusive [inhibitor, full curve]
CCCn1c(=O)[nH]c(=O)c2c1nc(-c1cccs1)n2CCOC | inactive
CCCN=Cc1c(CCC)[nH]n(-c2nc3ccccc3s2)c1=O | inconclusive [inhibitor, single point]
Cn1nc(CC(=O)Nc2ncc(Br)s2)c2ccccc2c1=O | inconclusive [inhibitor, partial curve]
CCc1ccccc1S(=O)(=O)c1c(C)cc(C)nc1Cl | inactive
CN(c1ccccc1)S(=O)(=O)c1ccc(C(=O)NCc2ccccc2F)cc1 | inconclusive [inhibitor, single point]
CCOC(=O)c1c(C)[nH]c(C)c1S(=O)(=O)NCCCN1CCOCC1 | inactive
Cn1cc(CNCc2cn(C)nc2-c2ccc(C3CCCCC3)cc2)cn1 | inconclusive [inhibitor, single point]
COc1ccc(OCC(=O)Nc2c3c(nn2-c2ccc(OC)cc2)CS(=O)(=O)C3)cc1 | inactive
O=C(Oc1cccc(Nc2ncnc3ccccc23)c1)c1ccccc1Cl | inconclusive [inhibitor, single point]
COc1cccc(NC(=O)Cn2c(-c3cncs3)nc3ccccc32)c1 | inconclusive [inhibitor, single point]
COc1ccc(OC)c(-c2csc(NC(=O)CSCC(=O)Nc3cc(C)on3)n2)c1 | inconclusive [inhibitor, single point]
CCOC(=O)C1CCN(c2c(Nc3ccc(C)c(C)c3)c(=O)c2=O)CC1 | inconclusive [inhibitor, single point]
Cc1sc2nc(C3CC3)nc(SCC(=O)N3c4ccccc4CC3C)c2c1C (stereo not drawn) | inconclusive [inhibitor, full curve, poor fit]
CCOc1cc(CNc2ccc(OC)cc2)cc(Br)c1OCC(=O)NC(C)(C)C | inconclusive [inhibitor, single point]
O=C(C1CCN(S(=O)(=O)c2cccc3nsnc23)CC1)N1CCCc2ccccc21 | inconclusive [inhibitor, single point]
C[C@]12CC[C@H]3[C@@H](CCC4=CC(=O)CC[C@@]43C)[C@@H]1CC[C@@H]2C(=O)CO | active: 11.7 µM
Cc1ccc(C)c(C(=O)COC(=O)c2c(-c3ccccc3)noc2C)c1 | inconclusive [inhibitor, single point]
FC(F)(F)c1ccc2c(c1)n(Cc1ccccc1)c1[n+]2CCCCC1 | active: 6.57 µM
Cc1ccc(C2(C)NC(=O)N(CC(=O)N3c4ccccc4NC(=O)CC3C)C2=O)cc1 (stereo not drawn) | inactive
Clc1ccc(-c2ccc(CN3CCCCC3)o2)cc1 | inactive
COc1ccc(NC(=O)CSc2nnc(CC(=O)Nc3ccc(F)cc3)n2C)cc1 | inactive
CC(C)CCn1nnnc1C(c1ccccc1)N1CCC(C(N)=O)CC1 (stereo not drawn) | inconclusive [inhibitor, single point]
COc1ccc2c(c1)C=CC1(O2)N(CCO)c2ccccc2C1(C)C (stereo not drawn) | active: 13.1 µM

SMILES | Potency
Cc1ccc(C(=O)C(c2ccccc2)N2Cc3ccccc3C2=N)cc1 (stereo not drawn) | inconclusive [inhibitor, single point]
O=C(Nc1cccc(Cl)c1)c1ccc(NCC2CCCO2)c([N+](=O)[O-])c1 (stereo not drawn) | inactive
Cn1nnnc1Sc1ncnc2scc(-c3cccc(S(C)(=O)=O)c3)c12 | active: 10.4 µM
C=CCOc1ccc(C(=O)n2cc(C(=O)OC)c3ccccc32)cc1 | inactive
Cc1ccc(C)c(CSc2nnc([C@@H]3CCCN3)o2)c1 | inactive
Cc1ccc(/C=C/C(=O)Nc2cccc3ncccc23)o1 | inactive
CC1(S(=O)(=O)O)CC(=O)c2ccccc2C1=O (stereo not drawn) | active: 14.7 µM
CCC(=O)c1ccc(N2CCN(C(=O)COc3ccccc3F)CC2)c(F)c1 | inconclusive [inhibitor, partial curve, poor fit]
CCCN1CCc2c(sc(NC(=O)C3CCN(S(=O)(=O)c4cccs4)CC3)c2C(N)=O)C1 | inconclusive [inhibitor, single point]
O=C(O)c1cccc(NC(=O)C2C3C=CC(C3)C2C(=O)O)c1 (stereo not drawn) | inconclusive [inhibitor, single point]
COc1ccc(C2CC(c3c(-c4ccccc4)c4cc(Cl)ccc4[nH]c3=O)=NN2S(C)(=O)=O)cc1 (stereo not drawn) | inconclusive [inhibitor, single point]
COc1cnc(-c2ccccn2)nc1Oc1c(C)cccc1C | active: 11.7 µM
CCOC(=O)N1CCC(NC(=O)c2ccc(CO)c(C(=O)NC3CCN(C(=O)OCC)CC3)c2)CC1 | inconclusive [inhibitor, partial curve, poor fit]
Cc1cc(C)cc(C(=O)/C=C2\NC(=O)CS2)c1 | inconclusive [inhibitor, partial curve, poor fit]
Nc1cccc2cc(-c3ccccc3)oc12 | inactive
O=C(Nn1cnnc1)c1ccc(Cl)c(Cl)c1 | inactive
O=C(Nc1ccc(NC(=O)c2ccc([N+](=O)[O-])o2)cc1Cl)c1ccco1 | active: 11.7 µM
COc1cc(OC)cc(-c2c(C#Cc3ccsc3)c3cc(-c4ccc5[nH]ccc5c4)ccc3n2C)c1 | inconclusive [inhibitor, partial curve]
O=C(NCc1ccncc1)Nc1ccc(Cl)cc1Cl | inconclusive [inhibitor, single point]
CSc1nnc(CNS(=O)(=O)c2ccc(Br)cc2)n1C | inconclusive [inhibitor, full curve, poor fit]
Cc1ccccc1OCC(=O)Nc1ccc(S(=O)(=O)N2CCCC2)cc1 | inconclusive [inhibitor, single point]
CC(=O)N1CCN(c2ccc(NC(=O)c3ccc(Cl)c([N+](=O)[O-])c3)cc2)CC1 | inactive
O=C(c1ccc(-n2cccc2)cc1)N1CCN(Cc2ccccc2)CC1 | inactive
